Assay results reported in the supplement of paper PMC11417369.
Some of the results follow.

Test system: PF3D7_0420300 AP2 domain 1 (GST-tagged)
Assay: gcPBM binding intensity (ln(normalized median fluorescence intensity)); higher = stronger DNA binding
Outline: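 Each value is the highest Masliner-normalised natural-log median intensity across replicate spots of either orientation of a probe. The probes were primer-extended double-stranded 36-bp intergenic genomic sequences on an Agilent 4 × 180k array, alongside negative controls, exposed for 1 h to GST-tagged P. falciparum DNA-binding domains expressed in E. coli. Bound protein was picked up with Alexa488 anti-GST antibody and scanned at 488 nm.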

| Sequence | gcPBM binding intensity (ln) |
| --- | --- |
| AAAATCTATAATATAACACACATATATTCTATATGG [CACACA_site7821] | 9.31 |
| CATACATACAGACACACACACATATAAATACATACA [CACACA_site6533] | 10 |
| TTCCTGTTAATTACAACACACAATTCTTATTTTATG [CACACA_site6507] | 9.58 |
| ATTTTCAAATTCTATGCATGTGTATATTATAGATAA [TGCATGCA_site1003] | 9.18 |
| GCACTCGTAAAAAGCACACATATAAAAACATTTATA [CACACA_site322] | 9.19 |
| TGAACAGACAAATACACACACTCAAAAAAAAAAAAG [CACACA_site7287] | 9.75 |
| CAATGCTTTATCAATACATGCATATATATAGAAATA [TGCATGCA_site857] | 8.97 |
| TTTTTTCTATTGAGCACACATATCACGATTAGTACT [CACACA_site313] | 9.37 |
| GCTCAATTTTTGGGTACACACAAATGTATAATAATA [CACACA_site2388] | 9.37 |
| ATATATATTATTTCTACACACATATATATAATATGT [CACACA_site3374] | 9.71 |
| CAAAGAGAAATAAACACACACAAAATAAAGAAAAAA [CACACA_site2245] | 9.74 |
| TTCTTTTTTCAACACACACACACAAGAAAATATATA [CACACA_site9019] | 10 |
| AAAAAAAAAAAAAAAACACACATATAGATTTATATA [CACACA_site7196] | 9.37 |
| ATATGTGATTTCTAATGTACACAAAAAAAAAAAAAA [XGTACX_site7701] | 9 |
| TCTTCAAACAAAAAAAATAATAAAAAGTACAAAATG [CACACA_negctrl_site363] | 9.38 |
| TTATGTCATAAATGCACACATATATAAATACAGATA [CACACA_site4959] | 9.29 |
| GGGGTATCTTCCTATGCACACTTGTTATGTACTAAC [CACACA_site4610] | 9.67 |
| TTTTTGTTTTTGTTTTGTACTCATACATACTATCAT [XGTACX_site4210] | 9.45 |
| CTTTTATTAAAATTCACACACATAAATTTTTATAAA [CACACA_site1993] | 9.18 |
| ATATATACGTATGAATGTATATTTGTTTGATTTTTT [CACACA_negctrl_site835] | 9.4 |
| AATATAAAAAAAAAATGTACATATTATATATATATA [XGTACX_site5113] | 9.25 |
| AAAAATTTTTTTTCATTTGTTTTTATTCCGTAAAAA [CACACA_negctrl_site1217] | 8.92 |
| ACCGAAGGAATTTATAGTACACATCATAAATAAATT [XGTACX_site4100] | 9.13 |

| Sequence | gcPBM binding intensity (ln) |
| --- | --- |
| TATAATATAAAATAATGTACTTTGAAATATGACATA [XGTACX_site3579] | 9.06 |
| AGTTTGATTTTTTCTTATAATATATTATTATATATT [CACACA_negctrl_site376] | 9.5 |
| TTTTTATTAATAGATATAAATATATAATATGAATGT [TGCATGCA_negctrl_site309] | 9.11 |
| ATATATATATATATTTGTACAGATTTATATTATAAT [XGTACX_site7612] | 9.13 |
| GAAAATTTAATATAGAACGAAAGCATACACATATAT [GTGCAC_negctrl_site424] | 9.6 |
| CCATATAATATGAACAGTACACACAAAATAAATTCG [XGTACX_site7590] | 9.83 |
| AAATATTATAGCACCACACACTTATTTTATATATAT [CACACA_site5281] | 9.55 |
| AGATATTTCATTTAAAGTACATTCTTTATCACATAA [XGTACX_site6731] | 9.05 |
| CACACGCACAAAAACACACACAAAGGTGTTCTTATA [CACACA_site6724] | 9.64 |
| TTATTTTTTTTTTTTCGTACTTATTTATCTTGGTAT [XGTACX_site78] | 9.37 |
| TATATATATATATATGGTACAGTTTATGCCTTTTAA [XGTACX_site6695] | 9.14 |
| ATTTTCATGATAAAGGTGCAATTATTTTTATAAGAA | 9.01 |
| TATAATATATACAAATGTACATATATATATATATAT [XGTACX_site4559] | 9.07 |
| TTATTTATAATATATACACACTAACATTATTTATCC [CACACA_site4835] | 9.4 |
| ATATATATGTGAAAATCACACATTGCTTATCTGTAA [CACACA_site6044] | 9.14 |
| TGTTTTATTATTTATAGTACATAAAAAAATATTGTA [XGTACX_site8963] | 9.06 |
| TTCGTATATTATTAATGTACATTATAAAATCAATAT [XGTACX_site5751] | 9.14 |
| AAAAAAACATGAAACACACACAAATATATATATATA [CACACA_site1884] | 9.74 |
| AACAATATTATTGTTTGTACTCACATATATAATATA [XGTACX_site8063] | 9.08 |
| AAAAAAAAAAAAAAAAAAAAAAAAAAAATTCTATAT [GTGCAC_negctrl_site468] | 9.36 |
| AAGGCATACAATACCTGTACGCAACCTTAAAAAGAA [XGTACX_site6070] | 9.11 |
| ATAATATATATACAAACACACAATTGTGTCCACATT [CACACA_site1747] | 9.74 |
